# Measured values as given in PubChem BioAssay AID1768 (National Center for Advancing Translational Sciences (NCATS), 2009).
# Hit rate of the full screen: of about 270,000 compounds, about 620 (0.23%) were called active. This list was built around the results that the source calls inconclusive (neither active nor inactive); the mix of calls is not that of the screen. The call rests on the fitted dose curve; in most records, active means well fitted inhibition curve with a large enough effect in the polarisation, with a control signal flat (not every such curve was filed as active); inconclusive means small, poorly fitted or top-dose-only effect, or effect the other way, or a change in a side signal; inactive means no such curve, though single readings can be large or run the other way; the % refers to the polarisation. Potencies of inconclusive entries are doubtful fits and often do not repeat. “Side channel” marks fits to a control or component signal instead of the main read-out.
# Molecular target: Menin (Homo sapiens) (UniProt O00255)
# UniProt O00255, sequence (O00255 whole entry, looked up): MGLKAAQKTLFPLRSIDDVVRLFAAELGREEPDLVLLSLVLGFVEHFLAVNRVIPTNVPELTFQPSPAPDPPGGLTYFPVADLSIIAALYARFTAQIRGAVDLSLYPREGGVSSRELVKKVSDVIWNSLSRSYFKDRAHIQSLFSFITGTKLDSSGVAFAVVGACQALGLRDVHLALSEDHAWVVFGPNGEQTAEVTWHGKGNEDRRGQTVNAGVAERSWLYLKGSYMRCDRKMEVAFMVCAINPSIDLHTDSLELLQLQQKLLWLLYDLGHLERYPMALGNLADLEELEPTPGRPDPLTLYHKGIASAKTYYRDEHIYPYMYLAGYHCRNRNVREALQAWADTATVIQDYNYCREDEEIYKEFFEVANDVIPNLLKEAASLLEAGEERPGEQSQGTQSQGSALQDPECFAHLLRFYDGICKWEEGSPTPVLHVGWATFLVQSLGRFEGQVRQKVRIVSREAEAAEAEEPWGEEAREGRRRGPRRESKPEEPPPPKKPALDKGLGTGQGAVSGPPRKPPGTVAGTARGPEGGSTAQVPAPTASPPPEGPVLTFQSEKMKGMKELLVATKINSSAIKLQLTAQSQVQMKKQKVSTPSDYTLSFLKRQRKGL
# Assay: qHTS Assay for Inhibitors Targeting the Menin-MLL Interaction in MLL Related Leukemias: Competition With Texas Red Labeled MLL-derived Mutant Peptide
# Conditions: fluorescence polarization; series mostly up to 61.6 µM
# Potency means the concentration at half of the fitted maximal effect; tags describe the fitted curve by direction and shape or compound fluorescence and quenching.
row,SMILES,Potency
1,CCCCCCc1cc2cc(C(N)=O)c(=N)oc2cc1O,inactive
2,CC(=O)N1c2ccccc2C2(C)C(C1(C)C)C2(Cl)Cl (stereo unspecified),"inconclusive: 39.8 µM [fluorescent, side channel, single point]"
3,CCCCNS(=O)(=O)c1ccc2nc(SCC(=O)Nc3sccc3C#N)[nH]c2c1,"inconclusive: 14.1 µM [quencher, side channel, partial curve]"
4,O=C(Nc1cc(-c2nc3ccccc3s2)ccc1Cl)c1ccc2c(c1)OCO2,"inconclusive: 39.8 µM [inhibitor, single point]"
5,CN1C(=O)CSC1=NC12CC3CC(CC(C3)C1)C2,"inconclusive: 20 µM [fluorescent, side channel, partial curve]"
6,Cc1occc1C(=O)Nc1c(F)c(F)c(F)c(F)c1F,"inconclusive: 31.6 µM [quencher, side channel, single point]"
7,CCCCCCCCn1c(N2CCN(c3cccc(Cl)c3)CC2)nc2c1c(=O)[nH]c(=O)n2C,"inconclusive: 1.41 µM [fluorescent, side channel, full curve, poor fit]"
8,Cc1ccccc1S(=O)(=O)Oc1cccc2c(O)cccc12,"inconclusive: 15.8 µM [quencher, side channel, partial curve]"
9,Cc1[nH]c2ccccc2c1/C=N/NS(=O)(=O)c1ccccc1,"inconclusive: 22.4 µM [quencher, side channel, partial curve]"
10,CCOC(=O)C1(CCOc2ccccc2)CCN(Cc2cccc(OC)c2O)CC1,"inconclusive: 5.01 µM [inhibitor, partial curve]"
11,O=C(C1=C[C@@H](c2ccc(Br)cc2)C[C@@H](OCCCCO)O1)N1CCN(Cc2ccccc2)CC1,"inconclusive: 5.01 µM [fluorescent, side channel, partial curve]"
12,O=C(Nc1ccccc1C(=O)O)c1cc(S(=O)(=O)N2CCOCC2)c(Br)s1,"inconclusive: 11.2 µM [quencher, side channel, partial curve]"
13,COc1ccc(Cl)cc1Nc1nc(-c2sc(NC(=O)C(C)(C)C)nc2C)cs1,"inconclusive: 10 µM [quencher, side channel, partial curve]"
14,OCC1(Cc2ccccc2)CCN(C2CCN(c3ccc(F)c(F)c3)CC2)CC1,"inconclusive: 11.2 µM [quencher, side channel, partial curve]"
15,CC(C)(CNC(=O)c1sc2cc(F)ccc2c1Cl)N1CCOCC1,"inconclusive: 31.6 µM [fluorescent, side channel, single point]"
16,O=C(NC(=S)Nc1ccc(S(=O)(=O)Nc2nccs2)cc1)c1ccccc1F,"inconclusive: 11.2 µM [quencher, side channel, partial curve]"
17,Cc1cc(C)n(-c2ncnc3sc(C)c(C)c23)n1,inactive
18,COc1cc(C(=O)NC2CCN(Cc3ccccc3)CC2)cc(Cl)c1OC(C)C,inactive

row,SMILES,Potency
1,CCOC(=O)c1c(N2C(=O)Nc3cc(Cl)c(Cl)cc3N2O)sc2c1CCCCC2,"inconclusive: 17.8 µM [quencher, side channel, partial curve]"
2,O=C(Nc1cccc(C(=O)Nc2cccc(C(F)(F)F)c2)c1)c1ccc(=O)[nH]c1,"inconclusive: 39.8 µM [fluorescent, single point]"
3,Cc1cc2cc(CNC(=O)Nc3cccc(Cl)c3)ccc2n1C,"inconclusive: 39.8 µM [fluorescent, side channel, single point]"
4,CCCn1c(NC(=O)c2ccc(Cl)c(S(=O)(=O)N3CCCC3)c2)nc2ccccc21,"inconclusive: 3.98 µM [quencher, side channel, partial curve]"
5,Cc1ccc(S(=O)(=O)c2cc3c(=O)n4ccccc4nc3n(Cc3ccco3)c2=N)cc1C,"inconclusive: 7.08 µM [quencher, side channel, full curve]"
6,Nc1nc(Cl)cc(N2CCC(c3cc(-c4ccc(Cl)cc4Cl)n[nH]3)CC2)n1,"inconclusive: 3.55 µM [inhibitor, full curve, poor fit]"
7,COC(=O)CCC(=O)c1oc2ccccc2c1NC(=O)CCCN1C(=O)c2ccccc2C1=O,"inconclusive: 39.8 µM [inhibitor, single point]"
8,Cc1cc(C(=O)N/N=C/c2ccc(-c3ccc([N+](=O)[O-])cc3C)o2)n[nH]1,"inconclusive: 11.2 µM [quencher, partial curve]"
9,O=C1Cc2ccccc2C(=O)N1Cc1cccc(Cl)c1,"inconclusive: 28.2 µM [quencher, side channel, single point]"
10,CC(c1ccc(O)cc1)(c1ccc(O)cc1)c1ccc(CCBr)cc1,"inconclusive: 7.94 µM [quencher, side channel, full curve]"
11,CCOC(=O)c1c(C)nc2sc3c(=O)n(-c4ccc(OC)cc4)cnc3c2c1-c1ccc(OC)cc1,"inconclusive: 8.91 µM [inhibitor, full curve]"
12,CN1CCN(C(=O)c2ccc(F)c(F)c2)CC1,"inconclusive: 1.78 µM [inhibitor, partial curve]"
13,COc1ccc(/C=N/Nc2nc3ccccc3s2)cc1O,"inconclusive: 22.4 µM [quencher, side channel, partial curve]"
14,O=C(Cn1c2ccccc2c(=O)c2ccccc21)N/N=C/c1ccc(N2CCCC2)c([N+](=O)[O-])c1,inactive
15,N#Cc1ccc(-c2ccc(F)cc2)nc1SCC(=O)Nc1sc2c(c1C#N)CCC2,"inconclusive: 15.8 µM [quencher, side channel, partial curve]"
16,Cc1ccc(-c2cc(C#N)c(=O)n(Cc3c(Cl)cccc3Cl)c2)cc1,inactive
17,CNC(=S)N1CCN(c2nc(-c3ccc(Cl)cc3)cs2)CC1,"inconclusive: 14.1 µM [quencher, side channel, partial curve]"
18,Cc1ccc(NC(=O)C2CC(=O)N/C(=N/N=C/c3ccco3)S2)cc1C (stereo unspecified),"inconclusive: 39.8 µM [inhibitor, single point]"
